PubChem BioAssay AID493035 (The Scripps Research Institute Molecular Screening Center, 2011)
Several values for one entry are separate records, joined by “and”; a condition that tells them apart may be missing. Identical values can stand only once. About 45 (2%) of roughly 2,000 compounds were called active.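 How the source made its calls: active means inhibition above the mean of all tested compounds plus 3 SD (cut at about 49% in these data); inactive means the rest.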 The list shows a part of the results. Where a SMILES comes first, the peptide text is derived from it. The star is where a group is joined. Boc = CC(C)(C)OC(=O)*

Target: Perilipin-5 (Homo sapiens) + 1-acylglycerol-3-phosphate O-acyltransferase ABHD5 (Homo sapiens) (UniProt Q00G26+Q8WTS1)
Assay: blockers of ABHD5 binding to perilipin-5 – cell lysate, split luciferase complementation, luminescence, NIH validation set, pilot screen (AID 493035);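 further: 0% = DMSO only wells while the 100% control is not stated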
Details: split G. princeps luciferase complementation, lysates, 4 h; at 7.9 µM, active compounds read high

UniProt Q00G26, sequence (Q00G26 whole entry, looked up): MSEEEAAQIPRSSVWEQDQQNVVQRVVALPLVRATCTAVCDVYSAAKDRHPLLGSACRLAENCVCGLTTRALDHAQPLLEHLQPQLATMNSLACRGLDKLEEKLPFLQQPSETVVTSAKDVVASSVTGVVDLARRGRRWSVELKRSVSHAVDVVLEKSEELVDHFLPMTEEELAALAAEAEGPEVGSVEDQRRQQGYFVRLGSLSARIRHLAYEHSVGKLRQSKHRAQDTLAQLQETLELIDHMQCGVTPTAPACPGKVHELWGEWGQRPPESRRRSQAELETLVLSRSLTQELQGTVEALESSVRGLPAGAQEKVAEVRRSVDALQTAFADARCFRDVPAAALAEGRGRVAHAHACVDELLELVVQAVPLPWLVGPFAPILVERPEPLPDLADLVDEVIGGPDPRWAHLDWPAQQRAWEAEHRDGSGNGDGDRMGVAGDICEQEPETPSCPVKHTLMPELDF
UniProt Q00G26, sequence (Q8WTS1 whole entry, looked up): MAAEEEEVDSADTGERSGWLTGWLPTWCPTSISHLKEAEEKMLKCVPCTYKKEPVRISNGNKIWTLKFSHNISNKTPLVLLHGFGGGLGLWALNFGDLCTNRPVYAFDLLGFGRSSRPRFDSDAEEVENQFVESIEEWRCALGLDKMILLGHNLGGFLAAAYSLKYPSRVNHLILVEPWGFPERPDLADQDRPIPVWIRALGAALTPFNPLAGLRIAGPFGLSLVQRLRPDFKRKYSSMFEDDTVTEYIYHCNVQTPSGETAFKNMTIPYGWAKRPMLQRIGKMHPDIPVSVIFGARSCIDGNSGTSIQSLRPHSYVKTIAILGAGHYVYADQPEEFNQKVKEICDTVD

Compound | inhibition
C[C@]12CC[C@H]3C(=CCc4cc(O)ccc43)[C@@H]1CCC2=O | inactive: 2.32%
CC(C)COCC1CC2(CC(C)(c3csc(N)n3)OC2=O)C(=O)O1 (stereo not drawn) | inactive: -11.5%
COc1c(C)cc(C(=O)C2CCCN(Cc3ccc(Oc4ncccn4)cc3)C2)cc1C (stereo not drawn) | inactive: -0.46%
COc1ccc(CNCCC(c2ccc(F)cc2)c2ccc(OC(C)C)cc2)cc1OC (stereo not drawn) | inactive: -5.38%
CCOC(=O)C1C2C=CC3(CN(c4ccc(Cl)c(F)c4)C(=O)C13)O2 (stereo not drawn) | inactive: -7.19%
O=C(O)CCSCCC(=O)O | inactive: 2.26%
O=C(c1cc2cc(Br)ccc2o1)N1CCCCC1 | inactive: -7.99%
CO[C@@]1(NC(=O)Cc2cccs2)C(=O)N2C(C(=O)O)=C(COC(N)=O)CS[C@@H]21 | inactive: 10.2%
O=C(c1ccco1)N(CCC(c1ccccc1)c1ccco1)Cc1ccco1 (stereo not drawn) | active: 58.6%
CC(C)Oc1ccc(C(CC(=O)O)c2ccc(F)cc2)cc1 (stereo not drawn) | inactive: -6.54%
COCCn1c(SCCOc2ccccc2)nc2ccccc2c1=O | inactive: -6.17%
CC[N+]1(C)CC2CCC(C)(C1)C2(C)C (stereo not drawn) | inactive: 4.08%
CC(C)(C)OC(=O)N1CCCC1C(=O)NC(Cc1ccccc1)C(=O)O (stereo not drawn) (Boc-Pro-Phe-OH; configuration not given here) | inactive: -6.93%
CC(CCc1ccccc1)NC(=O)/C=C/c1ccccc1 (stereo not drawn) | inactive: 0.97%
COc1cc(Cc2cnc(N)nc2N)cc(OC)c1OC | inactive: -7.05% and inactive: -2.82%
CC(C)OC(=O)C1C(=O)CC(C)(O)C(C(=O)OC(C)C)C1c1cccc(O)c1 (stereo not drawn) | inactive: -0.49%
COc1ccc(CN(CCC(c2ccccc2)c2ccc(OC(C)C)cc2)C(=O)CCl)cc1OC (stereo not drawn) | active: 67%
COc1ccc(CCN2CNc3c(c(=O)n(C)c(=O)n3C)C2)cc1OC | inactive: -3.84%
CCCCOC(=O)c1ccc(N)cc1 | inactive: 7.38%
O=C(CS(=O)(=O)Cc1ccccc1)NCc1ccc2c(c1)OCO2 | inactive: -13.3%
Cc1ccc(-n2ncc3c(Nc4cccc(C(=O)O)c4)ncnc32)cc1 | inactive: 6.95%

Compound | inhibition
NCCOc1ccccc1OCCN | inactive: 1.13%
Cc1ccc2[nH]c3c(c2c1)CN(C(=O)CN1CCSCC1)CC3 | inactive: 22.9%
COc1cc(OC)cc(C(C)=O)c1 | inactive: -4.4%
Cc1ccc2ncnc(NCCCCCC(=O)O)c2c1 | inactive: 3.77%
CCOc1ccc2ccccc2c1CNc1nnnn1C | inactive: -4.46%
COc1ccc(OC(C)C(=O)Nc2ccc([N+](=O)[O-])cc2)cc1 (stereo not drawn) | inactive: -3.09%
Cc1ccsc1C1NC(=O)c2ccccc2N1 (stereo not drawn) | inactive: 0.58%
COc1ccc2oc(=O)c(C(=O)N3CCN(c4ccccc4)CC3)cc2c1 | inactive: 9.11%
O=C(NCCCCCc1nc2ccccc2[nH]1)c1ccccc1Cl | inactive: 7.9%
O=C(Nc1cccc(-c2nc3ncccc3o2)c1)c1ccccc1 | inactive: 3.96%
Oc1ccc(Cl)cc1Cc1cc(Cl)ccc1O | inactive: -16.1%
COc1ccc(OC(C)C(=O)Nc2ccccc2F)cc1 (stereo not drawn) | inactive: 2.02%
COc1ccc(/C=C/C(=O)NC(=S)NN2CCCCC2c2cccnc2)cc1 (stereo not drawn) | inactive: 6.52%
O=C(Nc1nc2ccccc2s1)c1ccc(F)cc1 | inactive: -6.53%
CCn1c(/C=C/c2ccccc2)nc2ccccc2c1=O | inactive: 14.5%
CCn1c2ccccc2c2cc(CC(N)=O)ccc21 | inactive: -7.62%
N#C/C(C(N)=O)=c1/ccc2c(c1)N1C3=C(CCCC3)CC3CCCCC31N=2 (stereo not drawn) | inactive: 25.4%
CC(=O)c1cccc2c(O)c(C3=Nc4ccccc4C3=O)[nH]c12 | inactive: 44.2%
Cc1ccc(/C=N/Nc2nc(C(C)(C)C)cs2)o1 | inactive: -13.8%
CC(CCCC(C)(C)O)NC(=O)c1ccc(OC2CCN(C(=O)C3CC3)CC2)cc1 (stereo not drawn) | inactive: -2.91%
COc1cc2c(cc1OC)C(c1ccc(-c3cc(Cl)ccc3Cl)o1)=NCC2 | inactive: 9.42%

Compound | inhibition
CC(C)OC(=O)C1C2C=CC3(CN(CC4CCCO4)C(=O)C13)O2 (stereo not drawn) | inactive: -2.14%
CC(C)COCC(CN(Cc1ccccc1)c1ccccc1)N1CCCC1 (stereo not drawn) | inactive: -8.76%
CC(C)(C)c1csc(N/N=C/c2cccnc2)n1 | inactive: -3.9%
NC12CC3CC(CC(C3)C1)C2 | inactive: -3.26%
CN1CCN(C2=Nc3cc(Cl)ccc3Nc3ccccc32)CC1 | inactive: -4.11%
O[C@@H](CNC[C@H](O)c1ccccc1)c1ccccc1 | inactive: -2.9%
Cc1cccc(-n2c(Cc3ccccc3)n[nH]c2=S)c1 | inactive: -3.13%
Cc1nc2ccccc2n1CC(=O)NC1CCCC1 | inactive: -8.3%
O=C(Nc1cccc(Cl)c1)N1CCN2C(=O)c3ccccc3C12c1ccccc1 (stereo not drawn) | inactive: 9.11%
CCn1ccnc1CN(C)Cc1cn(-c2cccc(C)c2)nc1-c1cccc(F)c1 | inactive: 1.16%
COc1cc(C(=O)N/C(=C\c2cn(C)c3ccccc23)C(=O)NCCCO)cc(OC)c1OC | inactive: 1.02%
Cc1ccc2nc(N=C(N)N)nc(C)c2c1 | inactive: -4.02%
CC1(C)CC(=O)c2cc(O)ccc2O1 | inactive: -5.07%
c1cnc2c(c1)ccc1cccnc12 | inactive: -1.81%
CCOc1ccc(OCCSc2nc3ccccc3[nH]2)cc1 | inactive: -1.25%
CN1CCc2cccc3c2[C@H]1Cc1ccc(O)c(O)c1-3 | inactive: 6.48%
CC(C)C1CC(CCNCc2ccc(N(C)C)cc2)(c2ccccc2)CCO1 (stereo not drawn) | inactive: -22.6%
CCC(NC(C)C)C(O)c1ccc(O)c(O)c1 (stereo not drawn) | inactive: 4.08%
COc1ccccc1-c1c(C(F)(F)F)oc2cc(OC(=O)c3ccc([N+](=O)[O-])cc3)ccc2c1=O | inactive: 29.5%
Cc1cc(Cl)cc2c1NC(=O)[C@]21[C@@H]2C(=O)N(Cc3ccccc3)C(=O)[C@@H]2[C@@H]2CCCN21 | inactive: 0.92%
N/C(=N\OC(=O)CCCOc1ccc(Cl)cc1Cl)c1ccccn1 | inactive: -4.4%
